Measured values reported in PubChem BioAssay AID504339 (National Center for Advancing Translational Sciences (NCATS), 2011).
Screen size: about 390,000 compounds; about 17,000 (4.4%) were called active. Inconclusive means that the source gave no clear call. Such entries were picked first, then a sample of the others. Calls come from the whole dose curve; as a rule, active = well fitted inhibition curve with a large enough effect; inconclusive = small, poorly fitted or top-dose-only effect; inactive = no such curve, though single readings can be large or run the other way. Where the call is inconclusive, the potency comes from a doubtful curve fit.

target: Lysine-specific demethylase 4A (Homo sapiens) (UniProt O75164); assay: qHTS Assay for Inhibitors of JMJD2A-Tudor Domain; details: AlphaScreen JMJD2A-Tudor / H3K4me3 peptide binding; activity change, negative = inhibition: at 114 µM (top of the series); note: nearly all actives have a fitted effect of over 50% in size
% is set by controls: 0 for no effect and ±100 for the full control effect; potency is the fitted concentration of half-maximal effect; tags give direction and shape of the fitted curve.

UniProt O75164, sequence (O75164 whole entry, looked up, the tested form may be a part): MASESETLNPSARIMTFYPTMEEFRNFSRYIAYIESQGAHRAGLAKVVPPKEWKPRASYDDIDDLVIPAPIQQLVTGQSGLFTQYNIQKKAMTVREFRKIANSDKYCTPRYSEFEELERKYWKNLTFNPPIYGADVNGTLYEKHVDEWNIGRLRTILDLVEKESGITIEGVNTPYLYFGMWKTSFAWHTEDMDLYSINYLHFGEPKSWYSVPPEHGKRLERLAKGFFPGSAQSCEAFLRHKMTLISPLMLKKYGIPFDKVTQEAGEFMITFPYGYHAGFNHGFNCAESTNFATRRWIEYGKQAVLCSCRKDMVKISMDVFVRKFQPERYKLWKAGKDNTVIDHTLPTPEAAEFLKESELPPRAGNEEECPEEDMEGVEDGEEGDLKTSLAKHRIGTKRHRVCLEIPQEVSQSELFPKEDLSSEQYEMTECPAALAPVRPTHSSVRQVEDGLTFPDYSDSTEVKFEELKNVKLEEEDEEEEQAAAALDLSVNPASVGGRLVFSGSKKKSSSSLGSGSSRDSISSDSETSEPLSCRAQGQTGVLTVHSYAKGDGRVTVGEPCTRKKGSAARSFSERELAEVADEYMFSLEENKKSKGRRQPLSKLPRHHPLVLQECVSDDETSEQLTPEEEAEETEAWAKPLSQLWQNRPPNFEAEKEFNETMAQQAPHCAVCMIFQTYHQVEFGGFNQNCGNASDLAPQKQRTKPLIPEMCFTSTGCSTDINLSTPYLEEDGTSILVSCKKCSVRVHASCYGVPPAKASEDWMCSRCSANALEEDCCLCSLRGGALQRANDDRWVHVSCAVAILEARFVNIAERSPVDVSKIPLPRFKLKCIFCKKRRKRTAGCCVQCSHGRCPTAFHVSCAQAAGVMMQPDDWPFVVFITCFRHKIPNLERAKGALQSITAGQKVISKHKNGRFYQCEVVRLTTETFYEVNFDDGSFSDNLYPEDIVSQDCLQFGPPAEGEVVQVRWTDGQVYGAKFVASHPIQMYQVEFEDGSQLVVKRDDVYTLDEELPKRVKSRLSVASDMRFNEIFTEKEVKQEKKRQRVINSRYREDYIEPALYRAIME

Potency, active:
CC1CN(c2ccc([N+](=O)[O-])c(NCCOc3ccc(Cl)cc3)c2)CC(C)N1 (stereo not given) 31.6 µM
O=c1c2c(-c3ccccc3)csc2ncn1/N=C/c1cccc([N+](=O)[O-])c1O 79.4 µM
O=C/C(=C\Nc1ccc(Cl)cn1)c1nc2ccccc2o1 12.6 µM
CCOC(=O)/C(N=Nc1ccc2c(c1)OCO2)=C(\C)O 50.1 µM
O=C1Nc2ccccc2Oc2cc(Oc3ccccc3)ccc21 50.1 µM
O=[N+]([O-])c1ccc(/C=N/n2c(COc3ccccc3)n[nH]c2=S)cc1 79.4 µM
N#CC1=C(N)Oc2c(oc(CO)cc2=O)C1c1cccs1 (stereo not given) 28.2 µM
CC(=O)Nc1ccc(S(=O)(=O)N2CCN(C(C)CCc3ccccc3)CC2)cc1 (stereo not given) 1 µM
Cc1ccc2nc(-c3ccc(N=Nc4cc(S(=O)(=O)O)c5ccccc5c4O)cc3)sc2c1S(=O)(=O)O 17.8 µM
CCC(CNc1cc(OC)cc2cccnc12)NC1CCCCC1 (stereo not given) 56.2 µM
Cc1ccc(C(C)(c2ccc(N)cc2)c2ccc(N)cc2)cc1 50.1 µM
S=C(NCCCc1cnc[nH]1)NCCCN(Cc1ccccc1)c1ccc(Br)cn1 56.2 µM
O=c1c2sccc2[nH]c(=S)n1-c1ccccc1 5.62 µM

Potency, inconclusive:
CCC(c1nc2ccccc2c(=O)n1CCCn1ccnc1)N1C(=O)c2ccccc2C1=O (stereo not given) 50.1 µM [inhibitor, partial curve]
CSCC[C@H](NC(=O)N1CCn2c1nc1ccccc12)C(=O)NCc1ccccc1 89.1 µM [inhibitor, partial curve]
CCN(C(=O)Cn1ncc2c(=O)oc3ccc(C)cc3c21)c1cc(OC)ccc1OC 100 µM [inhibitor, single point]
COc1ccccc1Nc1nc(-c2cccc([N+](=O)[O-])c2)cs1 14.1 µM [inhibitor, full curve]
Cn1[nH]c(-c2ccccc2)c(/C=N/O)c1=O 15.8 µM [inhibitor, full curve]
Cc1cc(N2C(=O)C(O)=C(C(=O)c3ccco3)C2c2cccc(Oc3ccccc3)c2)no1 (stereo not given) 56.2 µM [inhibitor, partial curve]
CC1CCc2noc(NC(=O)c3ccccc3[N+](=O)[O-])c2C1 (stereo not given) 31.6 µM [inhibitor, partial curve]
O=C(CCCc1c[nH]c2ccccc12)N1CCN(S(=O)(=O)c2cccs2)CC1 56.2 µM [inhibitor, partial curve]
Cn1c(=O)oc2cc(S(=O)(=O)NCCN3CCc4ccccc4C3)ccc21 39.8 µM [inhibitor, single point]
COc1cccc(-c2nc(N3CCN(c4ccccc4)CC3)c3ccccc3n2)c1O 28.2 µM [inhibitor, partial curve]
O=C(COc1ccc(/C=N/NC(=O)c2ccncc2)cc1)Nc1ccc([N+](=O)[O-])cc1 0.708 µM [inhibitor, full curve, poor fit]
Cc1ccc(Nc2nc(NCc3ccco3)c3ccccc3n2)cc1 50.1 µM [inhibitor, partial curve]
Cc1ccc(C)c(CN2C(=O)c3ccccc3S(=O)(=O)c3ccc(C(=O)OCC4CCCO4)cc32)c1 (stereo not given) 79.4 µM [inhibitor, single point]
CC(C)C(=O)NC(=S)Nc1ccc(S(=O)(=O)Nc2ccccc2)cc1 89.1 µM [inhibitor, single point]
c1ccc(Nc2nc(Nc3ccccc3)nc(-n3cccn3)n2)cc1 0.794 µM [inhibitor, full curve, poor fit]
CCc1ccc(-c2c(C)sc(NC(C)=O)c2C(N)=O)cc1 100 µM [inhibitor, partial curve]
CC(=O)Nc1ccc(N2N=C(C)C(N=Nc3ccccc3)C2=O)cc1 (stereo not given) 20 µM [inhibitor, full curve]
Cc1cc(O)c(C(c2cccc(F)c2)N2CCN(c3ccccc3)CC2)c(=O)n1Cc1ccco1 (stereo not given) 79.4 µM [inhibitor, partial curve]
C=CCOc1ccc(CNc2ccc3[nH]c(=O)[nH]c3c2)cc1 50.1 µM [inhibitor, partial curve]
CN(c1ccccc1)S(=O)(=O)c1ccc(NC(=O)c2nc(S(C)(=O)=O)ncc2Cl)cc1 35.5 µM [inhibitor, full curve]
COc1ccc(CNc2nc(-c3ccco3)nn2S(=O)(=O)c2ccc(Cl)cc2)cc1OC 89.1 µM [inhibitor, partial curve]
O=c1cc(CN2CCN(c3ccccc3O)CC2)nc2sccn12 50.1 µM [inhibitor, partial curve]
CCOC(=O)c1cc(S(=O)(=O)Nc2cc(OC)ccc2OC)[nH]n1 31.6 µM [inhibitor, full curve, poor fit]
CCN(CCn1cccn1)Cc1nc(-c2ccccc2)no1 50.1 µM [inhibitor, partial curve]
Cc1ccccc1COC(=O)c1cc([N+](=O)[O-])ccc1N1CCOCC1 39.8 µM [inhibitor, full curve, poor fit]
Cc1nc(C)c(C(=O)C2=C(O)C(=O)N(CCN3CCOCC3)C2c2cccs2)s1 (stereo not given) 17.8 µM [inhibitor, single point]
O=C(O)C(C/C(=N/O)c1ccc(Br)cc1)P(=O)(c1ccccc1)c1ccccc1 (stereo not given) 17.8 µM [inhibitor, partial curve]
COc1ccc(-c2cn(-c3ccc(C)cc3)c(=O)n2CC(=O)Nc2ccc(OC)cc2OC)cc1 22.4 µM [inhibitor, full curve]
CC(C)(C)c1ccc(-c2nc(C#N)c(NCCCn3ccnc3)o2)cc1 56.2 µM [inhibitor, partial curve]
CC(C)NC(=S)N/N=C1\CCCCc2ccccc21 100 µM [inhibitor, partial curve, poor fit]
c1ccc(P(c2ccccc2)c2cnc3ccccn23)cc1 56.2 µM [inhibitor, partial curve, poor fit]
CO/N=C/c1ccc(N2CCN(C(=O)c3cccc(Cl)c3)CC2)c([N+](=O)[O-])c1 56.2 µM [inhibitor, partial curve]
Cc1ccsc1/C=N/n1c(C2CCCCC2)n[nH]c1=S 39.8 µM [inhibitor, single point]
COc1ccc2[nH]c(C)c(-c3csc(N)n3)c2c1 56.2 µM [inhibitor, partial curve]
CN(C)c1ccc(CNC(=O)C2CCN(c3nc4ccccc4[nH]3)CC2)cc1 56.2 µM [inhibitor, partial curve]
Cc1nnc(NC(=O)CCC(=O)NCc2cccs2)s1 12.6 µM [inhibitor, partial curve]
O=C(CN1C(=O)COc2ccccc21)NCCCN1CCc2ccccc2C1 89.1 µM [inhibitor, single point]
CCOC(=O)c1sc(NS(=O)(=O)c2ccccc2Cl)nc1C 56.2 µM [inhibitor, full curve, poor fit]
Cc1ccc(S(=O)(=O)N2CCC(C(=O)NCc3ccccc3Cl)CC2)cc1 89.1 µM [inhibitor, single point]
COc1ccccc1C1c2c(-c3ccc(Cl)cc3)n[nH]c2C(=O)N1c1ccc(C)cc1 (stereo not given) 12.6 µM [inhibitor, full curve, poor fit]
Cc1ccc(-n2nc(-c3ccccc3)cc2Nc2ccccc2N)cc1 50.1 µM [inhibitor, partial curve]

Activity change, negative = inhibition, inactive:
COC(=O)Cn1c2ccc(OC)cc2c2nc(C)sc21 -19.7%
CN=c1scc(-c2ccc([N+](=O)[O-])cc2)n1/N=C/c1ccco1 -13.7%
O=C(O)c1ccccc1NS(=O)(=O)c1cccc(N=Nc2c(O)[nH]c(=S)[nH]c2=O)c1 -17.3%
COc1ccc2[nH]c(=O)c(C(c3nnnn3CC3CCCO3)N3CCc4ccccc4C3)cc2c1 (stereo not given) -15.7%
NC(=O)NOCc1ccc(Cl)cc1Cl -3.01% [at 11.4 µM]
C(=C\c1ccncc1)/c1ccncc1 -3.68% [at 11.4 µM]
CSc1ccc(CCNC(=O)NCc2noc3ccccc23)cc1 -13.9%
COc1cc2c(-c3cccc(Cl)c3)nc3c(c(C)nn3-c3ccccc3)c2cc1OC 8.17%
CCN(C(=O)COC(=O)C1=COCCO1)c1c(N)n(Cc2ccccc2)c(=O)[nH]c1=O -11%
COc1ccccc1/C=C/C(=O)NCC(=O)N/N=C(/C)c1ccc(Cl)cc1 -21.4%
COc1ccc(NC(=O)C2CCN(S(=O)(=O)c3cccc(-c4noc(C)n4)c3)CC2)cc1OC -26.3%
CC(C)c1cccc(C(C)C)c1OC(=O)NC(=O)c1c(F)cccc1F -20.2%
CCCN(Cc1ccccc1)C(=S)Nc1cccc(C(F)(F)F)c1 8.82%
CC(C)C(O)(C#CCN1CCCC1)c1ccccc1 (stereo not given) -14.1%
CCN1CCN(Cc2c(O)ccc3c(C)c(-c4ccc(OC)cc4)c(=O)oc23)CC1 -15.9%
O=C(CCCC(=O)NCc1ccccc1)NCc1ccccc1 -1.43%
